Screen size: about 44,000 compounds; about 340 (0.77%) were called active. About 5% were inconclusive and are not listed. Calls follow the shape of the dose curve; as a rule, active = well fitted inhibition curve with a large enough effect; inconclusive = small, poorly fitted or top-dose-only effect; inactive = flat fitted curve, though single readings scatter. This is one part of the list.
Assay: Acumen qHTS Assay for Inhibitors of the mTORC1 Signaling Pathway in MEF (Tsc2-/-, p53-/-) Cells: Sytravon;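 also: plate controls were DMSO for no effect and rapamycin for full effect; nearly all actives have a fitted effect of over 50% in size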
Conditions: phospho-rpS6 immunofluorescence/PI, 24 h; series mostly up to 38.3 µM; activity change, negative = inhibition: at the top concentration
How it was run: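 Tsc2-/-, p53-/- mouse embryonic fibroblasts (empty-vector line) exposed to compound 24 hrs at 37 C, fixed, immunostained for phospho-rpS6 and counterstained with propidium iodide. Acumen laser scanning gives % positive cells from Alexa 488/PI ratio, thresholded using 7.5 nM rapamycin; PI count gives viability.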

Activity change, negative = inhibition, inactive:
Cc1ccc(CCNC(=O)c2ccc3c(c2)N(Cc2cccc(C)c2)C(=O)c2ccccc2S3(=O)=O)cc1 -9.43%, Cc1cc(=O)[nH]c2nnc(SCC(=O)NC(C)(C)C)n12 2.86%, O=C(CN1C(=O)COc2ccc(S(=O)(=O)N3CCCCCC3)cc21)NCc1ccc(Cl)cc1 -9.55%, COc1cc2c(cc1OC)C(COc1ccccc1OC)N(C(=O)CC(C)C)CC2 (configuration not stated) 9.29%, COc1ccc(Cl)cc1Nc1sc(C(=O)c2ccccc2)c(N)c1C(=O)Nc1ccccc1 1.01%, CC(=O)N1CCc2cc(CNS(=O)(=O)c3ccc(F)cc3)ccc21 0%, CCc1ccc(-c2cn3c(n2)sc2cc(C(=O)NC4CCCCCC4)ccc23)cc1 5.45%, O=C(NCc1cccc(Cl)c1)c1cc2c(s1)-c1ccccc1OC2 -2.75%, CCc1c(C)sc2c1CCN(Cc1cccc(F)c1)C2c1ccccc1 (configuration not stated) 7.34%, COCCc1nn2c(=O)cc(COC(=O)c3ccc4c(c3)OCO4)nc2s1 -3.2%, CC(=O)Nc1ccc(C(=O)CSc2nnc(-c3ccccc3)n2-c2ccccc2)cc1 15.3%, Cc1ccc(NC2=C(c3ccc(C(F)(F)F)cc3)C(=O)c3ccccc32)cc1C 1.74%, Cc1ccc(-c2cc(C(=O)NCc3cnn(C)c3C)c3cc(Br)ccc3n2)cc1 -0.741%, Cc1ccc(S(=O)(=O)c2nc(-c3ccccc3F)oc2N2CCCCC2)cc1 -4.25%, O=C(NC1CC1)c1ccc(Cn2c(SCc3cccc(F)c3)nc3cccnc32)cc1 -4.42%, O=C(Nc1ccc(Cl)cc1)C1CCN(c2nc3ccccc3nc2C(F)(F)F)CC1 5.72%, O=C(NCC(c1cccnc1)N1CCc2ccccc2C1)c1ccc(F)c(F)c1 (configuration not stated) 3.57%, COc1ccccc1N1CCN(C(=O)c2ccc(CS(=O)c3ccccc3C)o2)CC1 (configuration not stated) -16.8%, COc1ccc(CCN2C(=O)c3oc4cc(C)cc(C)c4c(=O)c3C2c2ccc(F)cc2)cc1OC (configuration not stated) 2.47%, CCS(=O)(=O)N1CCc2cc(C(=O)NCc3ccc(OC)cc3)ccc21 -0.0427%, Cn1cc(S(=O)(=O)c2cccc(Cl)c2)c(=O)c2cc(F)c(N3CCCCCC3)cc21 -4.97%, CCC(CC)C(=O)Nc1ccc(OCc2cc(=O)n3c4c(sc3n2)CCCC4)cc1 -5.52%, CCOc1ccc(NC(=O)c2ccc3c(SCC(=O)O)c4c(nc3c2)CCCC4)cc1 -1.13%, Cc1ccc(C(=O)N2CCc3cc(CNS(=O)(=O)c4ccc(Cl)s4)ccc32)cc1 -27.6%, Cn1cc(S(=O)(=O)c2ccc(Cl)cc2)c(=O)c2cc(F)c(N3CCCCCC3)cc21 0%, O=C(CN1CCN(S(=O)(=O)c2cc(Cl)ccc2Cl)CC1)Nc1cccc(F)c1 -4.08%, CCOc1ccc(C2CC(=O)n3nc(-c4ccc(C)cc4)nc3S2)cc1OC (configuration not stated) -10.6%, Fc1ccc(-c2nc(Nc3ccc(F)c(Cl)c3)nc3c2COc2ccccc2-3)cc1 2.52%, CC(C(=O)Nc1cccc(C#N)c1)n1nc(-c2ccccc2)c2c(c1=O)CCCC2 (configuration not stated) -6.4%, CCOC(=O)C1CCCN(C(=O)c2ccc3c(c2)N(Cc2ccccc2)C(=O)c2ccccc2S3(=O)=O)C1 (configuration not stated) -5.48%, CC1=C(C(=O)Nc2ccc(C)cc2C)C(c2ccccc2[N+](=O)[O-])n2ncc(C(=O)Nc3ccccc3)c2N1 (configuration not stated) 1.67%, O=C(Nc1ccc2nc3n(c(=O)c2c1)CCCCC3)c1cccc(C(F)(F)F)c1 -5.06%, O=C(CCC1N=C2c3ccccc3N=C(SCC(=O)Nc3ccc(F)cc3)N2C1=O)NCc1ccco1 (configuration not stated) -18%, Cc1ccc(N(Cc2cccs2)C(=O)c2ccco2)cc1 1.82%, Nc1nn(-c2ccccc2)nc1C(=O)OCc1c(F)cccc1Cl 9.01%, CC(C)N(C(=O)Cn1cc(S(=O)(=O)Cc2ccc(Cl)cc2)c2ccccc21)C(C)C -22.1%, COc1ccc(-n2c(SCC(=O)NCc3ccccc3)nc3c([nH]c4ccccc43)c2=O)cc1 -12.6%, COc1ccc(NC(=O)CC2Nc3ccccc3NC2=O)cc1 (configuration not stated) 3.82%, COc1ccc(Nc2nn(-c3ccc(OC(F)(F)F)cc3)nc2C(C)=O)cc1 0.291%, Cc1cc(C(=O)NCc2ccccc2)c2c(C)nn(-c3cccc(F)c3)c2n1 2.8%, COc1ccc(OC)c(NC(=O)c2ccc3c(Cl)c4c(nc3c2)CCCC4)c1 -3.15%, COc1cc(OC)c(NC(=O)N2CCC(CN3CCCC3)CC2)cc1Cl -5.93%, CCOC(=O)c1ccc(Nc2nn3c(=O)c4ccccc4nc3s2)cc1 -1.47%, CCCCN(C)C(=O)Cn1cnc2sc(C)c(S(=O)(=O)N3CCC(C)CC3)c2c1=O 0.558%, Cc1nn(-c2ccccc2)c2c1N(CC(=O)N1CCN(c3ccccc3F)CC1)C(=O)CS2 -1.54%, Cc1ccc(CNC(=O)c2ccc(CS(=O)(=O)Cc3ccc(C)cc3)o2)cc1 3.32%, Cc1ccc(CNc2ccc3cc(S(=O)(=O)N4CCCCC4)ccc3n2)cc1 -5.76%

From PubChem BioAssay AID493208 (National Center for Advancing Translational Sciences (NCATS), 2011)
